According to PubChem BioAssay AID504332 (National Center for Advancing Translational Sciences (NCATS), 2011):
About 31,000 (8.9%) of roughly 350,000 compounds were called active. The shares of active, inactive and inconclusive entries below differ from those in the screen. The call rests on the fitted dose curve; in most records, active means well fitted inhibition curve with a large enough effect; inconclusive means small, poorly fitted or top-dose-only effect; inactive means no such curve, though single readings can be large or run the other way. Where the call is inconclusive, the potency comes from a doubtful curve fit.

target: Histone-lysine N-methyltransferase EHMT2 (Homo sapiens) (UniProt Q96KQ7); experiment: qHTS Assay for Inhibitors of Histone Lysine Methyltransferase G9a; conditions: G9a H3K9 monomethylation, AlphaScreen, 2 h; activity, negative = inhibition: at 59 µM (top of the series) unless noted; further: nearly all actives have a fitted effect of over 75% in size
Outline: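 Step 1: enzyme (final 20 nM) with compound, 15 min RT. Step 2: substrate peptide 500 nM and SAM 20 uM, 2 h RT. Step 3: anti-H3K9me1 antibody and AlphaScreen beads, 10 min, then plate read.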
On the % scale 0 is the no-effect control and ±100 the full control effect; potency means the concentration at half of the fitted maximal effect; tags describe the fitted curve by direction and shape.

UniProt Q96KQ7, sequence (Q96KQ7 whole entry, looked up): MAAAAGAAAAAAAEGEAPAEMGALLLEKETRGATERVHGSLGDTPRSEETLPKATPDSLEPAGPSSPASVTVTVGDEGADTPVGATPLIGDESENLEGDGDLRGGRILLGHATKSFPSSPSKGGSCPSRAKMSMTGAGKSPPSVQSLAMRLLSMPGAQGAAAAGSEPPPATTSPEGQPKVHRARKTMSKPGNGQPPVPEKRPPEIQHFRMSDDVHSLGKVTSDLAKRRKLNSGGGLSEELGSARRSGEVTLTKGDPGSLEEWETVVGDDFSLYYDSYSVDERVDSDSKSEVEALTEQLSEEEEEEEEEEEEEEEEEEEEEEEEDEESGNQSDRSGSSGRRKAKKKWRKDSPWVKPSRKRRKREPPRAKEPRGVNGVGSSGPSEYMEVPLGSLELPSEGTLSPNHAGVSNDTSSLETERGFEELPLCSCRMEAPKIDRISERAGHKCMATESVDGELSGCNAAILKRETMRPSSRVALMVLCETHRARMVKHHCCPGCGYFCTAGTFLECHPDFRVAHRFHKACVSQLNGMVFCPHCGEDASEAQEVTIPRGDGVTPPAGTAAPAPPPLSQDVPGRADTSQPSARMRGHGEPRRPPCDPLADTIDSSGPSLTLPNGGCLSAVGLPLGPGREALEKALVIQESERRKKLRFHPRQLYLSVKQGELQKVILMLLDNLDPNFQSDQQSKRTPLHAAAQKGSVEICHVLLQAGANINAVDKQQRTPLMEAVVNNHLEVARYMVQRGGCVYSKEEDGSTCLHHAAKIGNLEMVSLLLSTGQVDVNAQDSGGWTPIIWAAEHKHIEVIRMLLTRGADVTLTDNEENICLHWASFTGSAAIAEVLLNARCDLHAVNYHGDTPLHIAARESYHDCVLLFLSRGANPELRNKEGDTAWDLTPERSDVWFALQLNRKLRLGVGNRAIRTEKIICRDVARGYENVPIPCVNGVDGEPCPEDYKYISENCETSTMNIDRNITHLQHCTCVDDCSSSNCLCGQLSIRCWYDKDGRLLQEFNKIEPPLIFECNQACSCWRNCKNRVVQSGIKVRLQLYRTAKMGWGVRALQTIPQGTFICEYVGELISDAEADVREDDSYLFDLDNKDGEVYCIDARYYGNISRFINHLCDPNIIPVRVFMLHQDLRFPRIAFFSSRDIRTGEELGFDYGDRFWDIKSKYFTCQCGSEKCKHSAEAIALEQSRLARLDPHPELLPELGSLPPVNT

SMILES	Potency	activity, negative = inhibition
Cc1cccc(CSc2nnc(-c3ccccn3)n2N)c1	active: 14.1 µM	–
CCOC(=O)N1CCC(N2CCN(c3ccccc3)CC2)CC1	inactive	–
CC(=O)c1cccc(NC(=O)Nc2cccs2)c1	inconclusive: 3.55 µM [inhibitor, single point]	–
COc1ccc(N2C(=O)c3ccccc3NC23CCCC3)cc1	inconclusive: 79.4 µM [inhibitor, partial curve, poor fit]	–
O=C(Nc1ccccc1)c1cc2c(-c3ccccc3)nn(-c3ccccc3)c2s1	inactive	–
COc1ccc(S(=O)(=O)NNC(=O)Cc2csc(C)n2)cc1[N+](=O)[O-]	inconclusive: 50.1 µM [inhibitor, partial curve, poor fit]	–
CC(C)n1c(O)c(N=NC(=O)CNC(=O)Cc2ccc(Cl)cc2)c2ccccc21	inconclusive: 89.1 µM [inhibitor, single point]	–
O=C(c1ccc(OC2CCN(Cc3ccccc3C(F)(F)F)CC2)cc1)N1CCCCC1	inconclusive: 20 µM [inhibitor, partial curve]	–
Nc1cc(-c2nn[nH]n2)ccc1F	inconclusive: 50.1 µM [inhibitor, partial curve, poor fit]	–
Cc1ccc(NN=Nc2nc3c([nH]2)c(=O)n(C)c(=O)n3C)cc1	active: 1.58 µM	–
CCOc1cc(N2CCOCC2)c(OCC)cc1NC(=O)CSc1ncn[nH]1	active: 44.7 µM	–
CCc1ccc(CNC(=O)CCn2ccc3cc(S(=O)(=O)N4CCCC4)ccc32)cc1	inactive	–
COc1cc2nc(CN3CCN(S(=O)(=O)c4ccccc4)CC3)[nH]c(=O)c2cc1OC	inconclusive: 79.4 µM [inhibitor, single point]	–
c1cncc(Nc2c3ccccc3nc3ccccc23)c1	inconclusive: 50.1 µM [inhibitor, partial curve]	–
CC(=O)c1cccc(-c2csc(N3CCC(C(N)=O)CC3)n2)c1	inconclusive: 3.16 µM [inhibitor, single point]	–
Cc1cc(=O)oc2c3c(cc(OCC(=O)NCc4ccncc4)c12)OC(C)(C)CC3	inconclusive: 39.8 µM [inhibitor, single point]	–
O=c1[nH]nc(Cc2ccc(-c3cccc(Cl)c3)o2)c2ccccc12	inconclusive: 10 µM [inhibitor, partial curve, poor fit]	–
COc1cc(OC)cc(C(=O)Nc2ccc(NC(=O)c3ccco3)c(C)c2)c1	active: 50.1 µM	–
Cc1cccc(N2CCN(C(=O)c3ccc(N4CCCC4=O)cc3)CC2C)c1 (stereo not drawn)	–	inactive: 37.8% [at 0.501 µM]
COc1ccc(Cl)cc1S(=O)(=O)Nc1ccc2c(c1)n(C)c(=O)n2C	inactive	–
Nc1nc(-c2ccc3c(c2)CCCC3)c(CC(=O)O)s1	active: 50.1 µM	–
O=C(c1ccco1)N1CCN(S(=O)(=O)c2cccc([N+](=O)[O-])c2)CC1	–	inactive: 19.8% [at 0.501 µM]
CCC(=O)N1c2ccccc2CC1C(=O)NCCCN1CCN(c2ccc(F)cc2)CC1 (stereo not drawn)	inactive	–
CC(C)COP(=O)(c1ccc(N(C)C)cc1)C(O)c1ccc(N(C)C)cc1 (stereo not drawn)	active: 39.8 µM	–
COc1ccc(-n2cnc3cc(N)ccc32)cc1	inconclusive: 15.8 µM [inhibitor, single point]	–

SMILES	Potency	activity, negative = inhibition
COc1ccc2cc(S(=O)(=O)Nc3ccccn3)ccc2c1	inactive	–
CCCN1C(=O)/C(=C2\SC(N3CCCCC3)=NC2=O)c2ccccc21	active: 22.4 µM	–
O=C(Nc1ccc(Br)cc1)Nc1nc2c(s1)CCCCCC2	inactive	–
COc1ccc(-c2nnc(SCC(=O)NC3CCCc4ccccc43)n2N)cc1 (stereo not drawn)	inconclusive: 39.8 µM [inhibitor, single point]	–
O=C(C[n+]1cc(-c2ccc(F)cc2)n2c1CCC2)OCc1ccccc1	inconclusive: 89.1 µM [inhibitor, single point]	–
CCOc1ccc2oc(C(=O)NC3CCN(Cc4ccccc4)CC3)c(C)c2c1	inconclusive: 89.1 µM [inhibitor, partial curve, poor fit]	–
CCN1CCCC1CNc1ncnc2c1[nH]c1ccc(F)cc12 (stereo not drawn)	–	inconclusive: -60% [inhibitor]
O=C1Nc2ccccc2N2CCCC12 (stereo not drawn)	active: 20 µM	–
O=S(=O)(Nc1ccc(N2CCOCC2)cc1)c1ccc(Cl)s1	inconclusive: 25.1 µM [inhibitor, partial curve, poor fit]	–
CCCCC(=O)Nc1ncc([N+](=O)[O-])s1	inconclusive: 50.1 µM [inhibitor, partial curve, poor fit]	–
CCC(NC(=O)CCl)c1ccc(C)cc1 (stereo not drawn)	inactive	–
N#Cc1c(N)nc(SCC(=O)C23CC4CC(CC(C4)C2)C3)c(C#N)c1-c1ccc(Cl)cc1	inconclusive: 89.1 µM [inhibitor, single point]	–
CCOc1ccc(CCNC(=O)COC(=O)c2ccc(Br)o2)cc1OCC	inconclusive: 79.4 µM [inhibitor, single point]	–
COc1ccc(OCC(=O)Nc2cccc(S(=O)(=O)N(C)c3ccccc3)c2)c([N+](=O)[O-])c1	inconclusive: 10 µM [inhibitor, single point]	–
Cc1ccc(CNC(=O)C23CN(Cc4ccccc4)CC2C(c2cccc([N+](=O)[O-])c2)=NO3)cc1 (stereo not drawn)	–	inconclusive: -85.1% [inhibitor] [at 12.7 µM]
COc1ccccc1N1C(=O)C2ON(c3ccccc3)C(c3ccc(N(C)C)cc3)C2C1=O (stereo not drawn)	active: 8.91 µM	–
CCOc1ccc(OCC)c(NC(=O)CCn2cccc2)c1	inconclusive: 50.1 µM [inhibitor, partial curve, poor fit]	–
Cc1[nH]n(-c2ccccc2)c(=O)c1/C=N/N1CCOCC1	inconclusive: 39.8 µM [inhibitor, partial curve, poor fit]	–
Fc1ccc2c(c1)/C(=N/Nc1ccccn1)CCS2	inconclusive: 79.4 µM [inhibitor, partial curve, poor fit]	–
Cc1nnc(N2CCCC(C(=O)NCc3ccccc3F)C2)c2nn(-c3ccccc3)c(C)c12 (stereo not drawn)	inactive	–
O=C(CSc1nc2ccccc2c(=O)n1CCC(=O)N1CCCCC1)NCc1ccccc1	inconclusive: 35.5 µM [inhibitor, single point]	–
COc1ccccc1CNS(=O)(=O)c1c(C)nc2sccn2c1=O	inactive	–
CCN(Cc1ccccc1)C(=O)CCNS(=O)(=O)c1ccc2c(c1)CC(C)N2C(C)=O (stereo not drawn)	inactive	–
COc1ccc(CCN=C(N)NS(=O)(=O)c2ccc(F)cc2)cc1	inactive	–
COc1ccc2c(c1)CCc1c(C(=O)NCc3cccnc3)noc1-2	active: 39.8 µM	–

SMILES	Potency	activity, negative = inhibition
COc1ccccc1NC(=O)CN1CCSc2ccccc21	inconclusive: 50.1 µM [inhibitor, partial curve]	–
COc1ccc(CN(C)CC(=O)Nc2sc3c(c2C#N)CCC3)c(OC)c1	inconclusive: 56.2 µM [inhibitor, partial curve]	–
Cn1c(=O)c(C(=O)COC(=O)c2cc(-c3ccco3)nc3ccccc23)c(N)n(CC2CC2)c1=O	active: 6.31 µM	–
O=C(CSc1cccc[n+]1[O-])C12CC3CC(CC(C3)C1)C2	inconclusive: 14.1 µM [inhibitor, full curve, poor fit]	–
Cn1cnnc1SCC(=O)Nc1ncc(C(F)(F)F)cc1Cl	inconclusive: 20 µM [inhibitor, full curve, poor fit]	–
CN(CCC#N)c1ccc(/C=C(\C#N)c2ccccn2)cc1	inconclusive: 25.1 µM [inhibitor, single point]	–
Cc1ccc(/C=C/C(=O)Nc2ccc(S(=O)(=O)Nc3onc(C)c3C)cc2)cc1	inconclusive: 79.4 µM [inhibitor, single point]	–
CSc1cccc(NC(=O)Cn2cccc2)c1	inconclusive: 79.4 µM [inhibitor, single point]	–
Oc1c(Cl)cc(Cl)cc1CNc1nc2ccccc2[nH]1	inactive	–
COc1ccc(C(=O)NC(=S)NNC(=O)CNC(=O)C2CCCCC2)cc1	active: 8.91 µM	–
CC(=O)Nc1ccc(NC(=O)CSc2nnc3ccc(-c4cccnc4)nn23)cc1	inconclusive: 44.7 µM [inhibitor, partial curve, poor fit]	–
COc1ccccc1CCC(=O)Nc1ccc(OC)c(S(=O)(=O)N2CCCCC2)c1	inconclusive: 25.1 µM [inhibitor, single point]	–
CC(C)Oc1ccc(CNC(=O)c2ccc(NC(=O)c3nsc4ccccc34)cc2)cc1	inactive	–
O=C(Nc1ncnc2c1CCC2)C12CC3CC(CC(C3)C1)C2	inactive	–
Cc1cc(NS(=O)(=O)c2ccc(NC(=O)c3ccoc3C)cc2)nc(C)n1	inconclusive: 79.4 µM [inhibitor, single point]	–
C/C(CC(=O)NC1CCCC1)=N\NC(=O)C1CCCCC1	inactive	–
O=C(O)c1n[nH]c2ccccc12	–	inconclusive: -92.2% [inhibitor]
CC1CCN(CC(=O)NC2CCCCC2)CC1	inconclusive: 89.1 µM [inhibitor, single point]	–
COc1ccc(OC)c(C(c2nnnn2C2CCCC2)N2CCN(c3ccccc3F)CC2)c1 (stereo not drawn)	inactive	–
COc1ccc(Br)cc1/C=C/C(=O)NC(=S)Nc1ccc(Cl)c(C(=O)O)c1	active: 31.6 µM	–
Cc1nc(SCC(=O)O)c2oc3ccccc3c2n1	active: 56.2 µM	–
Cc1cccc(C(C)C)c1NC(=O)CN1C(=O)NC2(CCc3ccccc32)C1=O (stereo not drawn)	inconclusive: 35.5 µM [inhibitor, partial curve, poor fit]	–
O=C1NCCN/C1=C\C(=O)c1ccc(Br)cc1	active: 50.1 µM	–
